Assay results taken from PubChem BioAssay AID596 (National Center for Advancing Translational Sciences (NCATS), 2007).
Hit rate of the full screen: of about 71,000 compounds, about 1,400 (2%) were called active. The inconclusive results got no clear call from the source; some entries with a clear call stand among them for comparison. Calls come from the whole dose curve; as a rule, active = well fitted curve in the direction sought with a large enough effect; inconclusive = small, poorly fitted or top-dose-only effect; inactive = no such curve, though single readings can be large or run the other way. Potencies beside an inconclusive call are fits to weak or partial responses and may not hold up.

Target: Microtubule-associated protein tau (Homo sapiens) (UniProt P10636)
Test: qHTS Assay for Tau Filament Binding;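 note: actives lower thioflavin S fluorescence by blocking filaments or displacing dye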
Conditions: recombinant tau filaments, thioflavin S fluorescence, 15 h, filaments grown with octadecylsulfate alongside compound; series mostly up to 57.1 µM; activity change, negative = inhibition: at the top concentration
Description: NIH Molecular Libraries Screening Centers Network [MLSCN]
NIH Chemical Genomics Center [NCGC]
Assay Provider: Jeffrey A. Kuret, Ohio State University
Tau monomers form filaments in vitro in the presence of anionic detergents or fatty acids. The dye Thioflavine S (ThS) binds to tau filaments and upon binding, increases in fluorescence several fold. Small molecules that displace ThS binding or prevent filament binding are identified by a reduction in ThS fluorescence. This assay used histidine-tagged, recombinant human tau protein containing the products of exons 2, 3, and 10 that was provided by Jeff Kuret, Ohio State University. To form filaments, 1 uM tau was incubated with 30 uM sodium octadecylsulfate (ODS) in reagent buffer (10 uM thioflavine S, 5 mM 1,4-dithioerythreitol (DTT), 100 mM sodium chloride, 10 mM HEPES pH 7.4) for 15 hrs at 37 C.
NCGC Assay Protocol Summary:
Assay Steps. Two uL/well of 2 uM tau in reagent buffer (10 uM thioflavine S, 5 mM DTT, 100 mM sodium chloride, 10 mM HEPES pH 7.4) was dispensed into solid black 1536-well plates. Twenty-three nL compound was transferred to the assay plate after which 2 uL/well of 60 uM ODS in reagent buffer was dispensed for a final assay volume of 4 uL /well. Following 15 hours of incubation at 37 C, fluorescence was detected by an Envision (Perkin Elmer) using 450/8 nm excitation and 510/23 nm emission.
Keywords: NIH Roadmap, MLSCN, MLI, MLSMR, qHTS, NCGC, Alzheimer's disease, Neurofibrillary lesions, tau, tubulin assembly, microtubule stability, cytoskeletal integrity, fibrillization, thioflavin dyes, Amyloidgenic
% is set by controls: 0 for no effect and ±100 for the full control effect; potency is the fitted concentration of half-maximal effect.

Chain of UniProt P10636 (P10636 whole entry, looked up): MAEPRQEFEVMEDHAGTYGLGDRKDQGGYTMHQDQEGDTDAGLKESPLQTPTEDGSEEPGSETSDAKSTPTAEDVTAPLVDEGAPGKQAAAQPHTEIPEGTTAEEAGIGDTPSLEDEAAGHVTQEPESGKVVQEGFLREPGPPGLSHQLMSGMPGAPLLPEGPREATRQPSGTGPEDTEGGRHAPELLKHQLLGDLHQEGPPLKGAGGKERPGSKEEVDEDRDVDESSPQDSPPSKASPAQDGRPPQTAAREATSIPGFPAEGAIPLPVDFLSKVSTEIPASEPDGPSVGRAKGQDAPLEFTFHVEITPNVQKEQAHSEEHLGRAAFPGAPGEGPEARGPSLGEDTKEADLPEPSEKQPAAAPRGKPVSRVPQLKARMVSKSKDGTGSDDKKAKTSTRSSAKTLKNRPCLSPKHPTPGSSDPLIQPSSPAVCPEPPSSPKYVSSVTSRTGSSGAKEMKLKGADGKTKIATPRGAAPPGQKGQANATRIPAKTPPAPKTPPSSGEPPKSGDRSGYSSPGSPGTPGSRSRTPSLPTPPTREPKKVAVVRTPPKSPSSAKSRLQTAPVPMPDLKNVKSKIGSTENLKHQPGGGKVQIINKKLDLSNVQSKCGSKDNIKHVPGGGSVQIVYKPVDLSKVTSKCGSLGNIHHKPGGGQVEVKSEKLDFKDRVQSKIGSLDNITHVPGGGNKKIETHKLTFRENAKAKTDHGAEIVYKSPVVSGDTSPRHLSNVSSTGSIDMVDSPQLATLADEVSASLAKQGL

Structure (SMILES)	Potency	activity change, negative = inhibition
CC(C)(C)c1ccc(-c2cc(N)n[nH]2)cc1	inconclusive: 20 µM [decreasing]	–
N=C(N)SCCc1cnc[nH]1	inconclusive: 39.8 µM [decreasing]	–
CC(=O)NNC(=O)N1Cc2ccccc2Oc2ccc(Cl)cc21	inconclusive: 39.8 µM [decreasing]	–
O=c1c(CCc2ccccc2)nc2cnc(N3CCOCC3)nc2n1C1CC1	inconclusive: 15.8 µM [decreasing]	–
CN1C(=O)CSc2ccc(NC(=O)N3CCOCC3)cc21	inconclusive: 25.1 µM [decreasing]	–
O=C(OC1CCc2ccccc2C1=O)c1ccccc1O (centres undefined)	inconclusive: 31.6 µM [decreasing]	–
O=C(COC(=O)c1cnccn1)Nc1ccc(Cl)cc1	inconclusive: 25.1 µM [decreasing]	–
O=C1c2ccccc2C(=O)N1CCc1nc2ccccc2c(=O)n1Cc1ccco1	inconclusive: 31.6 µM [decreasing]	–
CCCCCCN(CCCCCC)C(=O)Cc1c(-c2ccc(F)cc2)[nH]c2ccccc12	inconclusive: 39.8 µM [decreasing]	–
Cc1cc(OCCN2CCCC2)ccc1C(C)C	inconclusive: 25.1 µM [decreasing]	–
Cc1ccc(-n2ncc3c(=O)n(CC#N)cnc32)cc1C	–	inactive: 21.1%
CN(C)C(=O)c1ccc(-c2nc(Nc3ccc(F)cc3)c3ccccc3n2)cc1	–	inactive: 9.8%
C[N+](C)(CCCCCC[N+](C)(C)CCCN1C(=O)c2ccccc2C1=O)CCCN1C(=O)c2ccccc2C1=O	inconclusive: 39.8 µM [decreasing]	–
COc1ccc(N2CCN(C(=O)CCNS(=O)(=O)c3ccc(Br)s3)CC2)cc1	inconclusive: 31.6 µM [decreasing]	–
O=C(Nc1nc(-c2ccco2)cs1)c1ccccc1	inconclusive: 25.1 µM [decreasing]	–
Cn1cccc1Cc1nnc(SCC(N)=O)n1-c1ccc(F)cc1	inconclusive: 25.1 µM [decreasing]	–
CC(C)C[C@H](NC(=O)[C@@H](O)[C@H](N)Cc1ccccc1)C(=O)O	inconclusive: 39.8 µM [decreasing]	–
CSc1ncccc1C(=O)OCC(=O)Nc1cc(C(F)(F)F)ccc1N1CCOCC1	–	inactive: 1.5%
Cc1cc(-c2cccs2)n[nH]1	–	inactive: -7.6%
CC(N=Cc1cccc(O)c1O)c1ccccc1 (centres undefined)	active: 12.6 µM	–
O=C1CCNc2cc3ccccc3cc21	active: 20 µM	–

Structure (SMILES)	Potency	activity change, negative = inhibition
C=CCN1C(=O)CSC1=Nc1cccc(O)c1	–	inactive: 6.4%
N#C/C(=C\c1ccco1)Sc1nc2ccccc2s1	inconclusive: 25.1 µM [decreasing]	–
CC1Cc2ccccc2N1S(=O)(=O)c1cccc2nsnc12 (centres undefined)	active: 25.1 µM	–
Fc1ccc(CNc2nc(-c3ccco3)cc(C(F)(F)F)n2)cc1	inconclusive: 31.6 µM [decreasing]	–
CN=C(NC#N)NCCSCc1nc[nH]c1C	inconclusive: 39.8 µM [decreasing]	–
O=c1c(-c2ccc(O)cc2)coc2cc(O)cc(O)c12	inconclusive: 39.8 µM [decreasing]	–
Cc1ccc(C)c(-n2c(SCC(=O)Nc3nonc3C)nnc2-c2ccoc2C)c1	–	inactive: 13.4%
COc1ccc(-c2nc(C(=O)N3CCN(C)CC3)sc2-c2ccc(OC)cc2)cc1	inconclusive: 39.8 µM [decreasing]	–
O=C(CSc1nnc(NC(=O)C2CCC2)s1)Nc1ccc(N2CCOCC2)cc1	inconclusive: 39.8 µM [decreasing]	–
N#CC(C(=O)NCCc1ccccc1)c1nc2ccccc2nc1N1CCOCC1 (centres undefined)	active: 2.51 µM	–
CCOc1cc(S(=O)(=O)NC2CCCCCC2)ccc1F	–	inactive: -23.1%
CC1(NC[C@@H](O)COc2cccc3[nH]ccc23)CCC(C(C)(C)NC(=O)CBr)CC1 (some centres undefined)	–	inactive: -6.8%
COc1cc(C(C)=O)ccc1OCC(=O)c1cc(C)n(C2CC2)c1C	–	inactive: -0.9%
COC(=O)c1cc2c(s1)-c1ccccc1OC2	–	inactive: 24.9%
COc1ccc(-c2ccc(=O)n(Cc3cc(=O)n4ccccc4n3)n2)cc1	–	inactive: -4.9%
CCOC(=O)CN(C(=O)CSc1nnc2c(n1)[nH]c1ccc(OC)cc12)c1ccc(F)cc1	inconclusive: 31.6 µM [decreasing]	–
O=C1CC(N2CCN(c3ccccc3Cl)CC2)C(=O)N1c1ccc(F)cc1 (centres undefined)	inconclusive: 3.98 µM [decreasing]	–
N[C@H]1[C@@H](C(=O)O)[C@H]2C=C[C@H]1C2	–	inactive: -1.9% [at 11.4 µM]
N=c1ccn2c(n1)O[C@H]1[C@H](O)[C@@H](CO)O[C@H]12	inconclusive: 39.8 µM [decreasing]	–
CN(C)CCCN1c2ccccc2Sc2ccc3ccccc3c21	active: 2.51 µM	–
Cc1nn(-c2ccccc2)c2sc(C(=O)N3CCCCC3)cc12	–	inactive: 18.1%

Structure (SMILES)	Potency	activity change, negative = inhibition
CCCn1c(=O)c2[nH]c(-c3ccccc3)nc2n(CCC)c1=O	inconclusive: 39.8 µM [decreasing]	–
Clc1ccc2c(c1)N=C(N1CCNCC1)c1ccccc1N2	active: 39.8 µM	–
COCCn1c(=O)c(-c2cccs2)nc2cnc(Oc3ccccc3)nc21	inconclusive: 25.1 µM [decreasing]	–
CC(C)Oc1cccc(-n2c(CCc3c[nH]c4ccc(Br)cc34)nc3ccccc3c2=O)c1	inconclusive: 39.8 µM [decreasing]	–
OC(CCN1CCOCC1)(c1ccc(Cl)cc1)C1CCCCC1 (centres undefined)	active: 20 µM	–
Cc1ccc(-c2cc(C(=O)Nc3cc(C)on3)c3ccccc3n2)c(C)c1	inconclusive: 7.94 µM [decreasing]	–
COc1ccc(CCN(C)CCc2ccc(OC)c(OC)c2)cc1OC	inconclusive: 31.6 µM [decreasing]	–
Oc1ccc2ccccc2c1C=NCc1cn2ccsc2n1	inconclusive: 31.6 µM [decreasing]	–
CCCCc1ccc(C2C(C#N)=C(N)SC(N)=C2C#N)s1	active: 0.316 µM	–
COc1ccc(Nc2ncnc3c2cnn3Cc2ccccc2)cc1	inconclusive: 39.8 µM [decreasing]	–
CCN1C(=O)c2c(C)nc3ccccc3c2C1=O	active: 15.8 µM	–
CSCC[C@H](NC(=O)OC(C)(C)C)c1nnc(SCc2ccccc2)o1	inconclusive: 31.6 µM [decreasing]	–
COc1ccc([C@@H]2CNC(=O)C2)cc1OC1CCCC1	inconclusive: 39.8 µM [decreasing]	–
CC(C)COC[C@H](CN(Cc1ccccc1)c1ccccc1)N1CCCC1	inactive	–
COc1ccc(OC)c(NC(=O)C(CC(C)C)NC(=O)C2CCCCC2)c1 (centres undefined)	inconclusive: 39.8 µM [decreasing]	–
N[C@H]1CCN(O)C1=O	inconclusive: 39.8 µM [decreasing]	–
COc1cc(NC(=O)C2CCCO2)c(OC)cc1NC(=O)c1ccccc1 (centres undefined)	active: 25.1 µM	–
Cc1cc(Cc2cc(Cc3cc(C)cc(C(C)(C)C)c3O)c(C)cc2C)c(O)c(C(C)(C)C)c1	inconclusive: 5.01 µM [decreasing]	–
c1ccc2cc3[nH]c(CN4CCCCC4)nc3cc2c1	inconclusive: 39.8 µM [decreasing]	–
Cn1c2c(c3ccccc31)CC/C2=N\O	–	inactive: 4.4%
Nc1nc(-c2ccccc2Br)cs1	inconclusive: 31.6 µM [decreasing]	–

Structure (SMILES)	Potency	activity change, negative = inhibition
CCN(CC)c1ccc(NC(=O)c2ccc(Br)o2)c(C)c1	inconclusive: 25.1 µM [decreasing]	–
Fc1cccc(CSc2nc3ccncc3[nH]2)c1	–	inactive: -0.8%
CO[C@]1(C2=NCCN2)COc2ccccc2O1	inconclusive: 39.8 µM [decreasing]	–
CCCCc1ccc(Nc2nc(CCC)cc(=O)[nH]2)cc1	–	inactive: 226%
COc1ccc(N2CCN(CCCNC(=O)CC3Oc4ccc(C)cc4NC3=O)CC2)cc1 (centres undefined)	active: 25.1 µM	–
CCN(CC)CCOC(=O)C1(c2ccc([N+](=O)[O-])cc2)CCCC1	inconclusive: 39.8 µM [decreasing]	–
Cc1ccc2oc3c(c(=O)c2c1)C(c1cccc(O)c1)N(c1ccccn1)C3=O (centres undefined)	active: 12.6 µM	–
CCC(=O)O[C@H](CC(=O)O)C[N+](C)(C)C	inconclusive: 39.8 µM [decreasing]	–
COC(=O)C1=C(C)NC(C)=C(C(=O)OC)C1c1ccccc1[N+](=O)[O-]	inconclusive: 39.8 µM [decreasing]	–
CN(C)c1ccc(-c2nc(-n3ccnc3)c3ccccc3n2)cc1	inconclusive: 5.01 µM [decreasing]	–
COc1ccc(Nc2cccccc2=O)cc1	inconclusive: 31.6 µM [decreasing]	–
Cc1ccc(NC2c3ncccc3C(=O)N2C2CCCCC2)cc1 (centres undefined)	inconclusive: 15.8 µM [decreasing]	–
O=C(NCCN1CCCC1)c1cc(-c2ccncc2)nc2ccc(S(=O)(=O)N3CCOCC3)cc12	inconclusive: 25.1 µM [decreasing]	–
CCCOc1ccc(C(=O)N2CCN(c3ccc(N)cc3Cl)CC2)cc1	inconclusive: 25.1 µM [decreasing]	–
COc1ccccc1C(=O)NCc1ccc2c(c1)OCO2	–	inactive: 3.7%
NC(=O)c1ccc(-c2nc(-c3ccc4c(c3)OCO4)c(-c3ccccn3)[nH]2)cc1	inconclusive: 39.8 µM [decreasing]	–
O=S(=O)(c1cnc[nH]1)N1CCc2ccccc21	inconclusive: 39.8 µM [decreasing]	–
CC1=C(/C=C/C(C)=C/C=C/C(C)=C/C(=O)Nc2ccc(O)cc2)C(C)(C)CCC1	active: 3.16 µM	–
N#CCCn1cc(C(CC(=O)c2ccccc2)C(=O)O)c2ccccc21 (centres undefined)	–	inactive: 7.2%
CNc1nc(-c2ccoc2)nc2ccccc12	inconclusive: 15.8 µM [decreasing]	–
O=C(Nc1ccc(Cl)cc1C(=O)O)c1ccc2c(c1)C(=O)N(Cc1ccco1)C2=O	inconclusive: 31.6 µM [decreasing]	–
